# From PubChem BioAssay AID1460 (National Center for Advancing Translational Sciences (NCATS), 2008)
# Where “and” joins values, the source holds several entries; their conditions need not be identical. Equal values may be shown once. The whole screen tested about 270,000 compounds, of which about 5,800 (2.1%) were called active. Inconclusive means that the source gave no clear call. Such entries were picked first, then a sample of the others. The call rests on the fitted dose curve; in most records, active means well fitted inhibition curve with a large enough effect; inconclusive means small, poorly fitted or top-dose-only effect; inactive means flat fitted curve, though single readings scatter. Potencies beside an inconclusive call are fits to weak or partial responses and may not hold up.
# Molecular target: Microtubule-associated protein tau (Homo sapiens) (UniProt P10636)
# UniProt P10636, sequence (P10636 whole entry, looked up): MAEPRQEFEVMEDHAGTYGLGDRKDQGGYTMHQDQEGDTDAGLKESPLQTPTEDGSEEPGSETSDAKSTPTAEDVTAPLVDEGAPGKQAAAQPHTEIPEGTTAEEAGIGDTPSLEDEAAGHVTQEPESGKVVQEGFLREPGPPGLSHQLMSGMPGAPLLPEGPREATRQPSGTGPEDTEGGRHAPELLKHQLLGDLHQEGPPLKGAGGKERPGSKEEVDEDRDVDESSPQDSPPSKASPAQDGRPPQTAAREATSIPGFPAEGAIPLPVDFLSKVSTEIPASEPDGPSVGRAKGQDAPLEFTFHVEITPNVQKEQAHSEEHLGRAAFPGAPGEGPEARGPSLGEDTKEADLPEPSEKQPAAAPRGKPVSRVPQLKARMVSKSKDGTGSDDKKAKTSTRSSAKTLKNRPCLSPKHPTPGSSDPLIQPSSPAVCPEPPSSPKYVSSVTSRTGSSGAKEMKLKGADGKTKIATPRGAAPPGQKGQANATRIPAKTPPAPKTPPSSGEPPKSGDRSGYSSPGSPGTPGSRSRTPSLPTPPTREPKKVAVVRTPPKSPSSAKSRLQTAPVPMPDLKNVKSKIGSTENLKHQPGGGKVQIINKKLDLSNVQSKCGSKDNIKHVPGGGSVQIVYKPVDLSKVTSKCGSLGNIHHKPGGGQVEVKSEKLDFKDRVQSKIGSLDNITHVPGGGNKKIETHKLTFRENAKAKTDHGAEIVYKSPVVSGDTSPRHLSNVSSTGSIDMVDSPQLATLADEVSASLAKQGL
# Experiment: qHTS for Inhibitors of Tau Fibril Formation, Thioflavin T Binding; further: nearly all actives have a fitted effect of over 55% in size
# Settings: recombinant tau K18 P301L, heparin-induced fibrillization, ThT fluorescence; series mostly up to 57.4 µM; activity, negative = inhibition: at the top concentration
# Outline: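 ThT emission at 510 nm, taken 1 hr after adding 30 uM dye, quantifies aggregates formed when 20 uM heparin acts on human tau K18 P301L for 6 hr at 37 C.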
# On the % scale 0 is the no-effect control and ±100 the full control effect; potency means the concentration at half of the fitted maximal effect; tags describe the fitted curve by direction and shape.
SMILES,Potency,"activity, negative = inhibition"
Cc1cc(/C=C2\C(=O)NC(=O)N(Cc3ccccc3)C2=O)c(C)n1-c1ccc(Cl)c(C(=O)O)c1,"inconclusive: 12.6 µM [inhibitor, partial curve]",
O=c1[nH]c(=O)n(Cc2ccccc2Cl)c(O)c1/C=C1/C=CC=N1,"inconclusive: 20 µM [inhibitor, single point]",
CCOc1ccccc1-n1c(O)c(C=Nc2ccc(N(CC)CC)cc2)c(=O)[nH]c1=O,"inconclusive: 31.6 µM [inhibitor, partial curve]",
NNCc1cccc(O)c1,"inactive and inconclusive: 17.8 µM [inhibitor, partial curve]",
Nc1c(C(=O)Nc2ccc(OC(F)(F)F)cc2)sc2nc3c(cc12)N1CCC3CC1,"inconclusive: 0.891 µM [inhibitor, full curve, poor fit]",
COc1cc(/C=C/c2nc3ccccc3c(=O)n2-c2ccc(Br)c(C)c2)ccc1O,"inconclusive: 28.2 µM [inhibitor, partial curve]",
O=C(CN1CCOCC1)c1cccc2ccccc12,"inconclusive: 15.8 µM [inhibitor, partial curve]",
Cn1c(=O)c2c(nc(N/N=C/c3c(O)n(-c4ccccc4)c(=S)[nH]c3=O)n2C)n(C)c1=O,"inconclusive: 14.1 µM [inhibitor, partial curve]",
CCOc1ccc(NCc2cccn2-c2nnc(N3CCC(C(=O)NCc4ccc(C)cc4)CC3)s2)cc1,"inconclusive: 5.62 µM [inhibitor, partial curve]",
COC(=O)C1=Nc2ccccc2/C1=C\c1c(O)n(-c2cc(OC)ccc2OC)c(=O)[nH]c1=O,"inconclusive: 3.55 µM [inhibitor, full curve]",
CC/C(=N\NC(=S)Nc1ccccc1)c1c(O)[nH]c(=O)[nH]c1=O,"inconclusive: 28.2 µM [inhibitor, single point]",
CC(C)CN(CC(C)C)c1ccc(C=C2C(=O)NC(=S)NC2=O)cc1[N+](=O)[O-],active: 25.1 µM,
CCCCc1nc2ccccc2c(=O)n1-c1cccc(OC)c1,,inactive: -15.9%
CN1C(=O)C(=Cc2ccc(-c3cccc(Cl)c3)o2)C(=O)N(C)C1=O,"inconclusive: 4.47 µM [inhibitor, full curve]",
CC1(C)C2C[C@@H](O)[C@]3(C)C(CC[C@@]4(C)[C@H](c5ccoc5)C[C@H]5O[C@]543)[C@@]2(C)[C@@H](O)C[C@H]1O (stereo not given in full),,inactive: -4.47%
CN1C[C@@H](CO)C=C2c3cccc4[nH]cc(c34)CC21 (stereo not given in full),"inconclusive: 25.1 µM [inhibitor, partial curve]",
Cc1cc(/C=C2\C(=O)NC(=O)N(Cc3ccccc3Cl)C2=O)c(C)n1-c1ccc(C(=O)O)cc1,"inconclusive: 28.2 µM [inhibitor, single point]",
CNc1cc(Cl)c2nonc2c1[N+](=O)[O-],active: 11.2 µM,
Clc1cccc(CN2CCCCC2c2cccnc2)c1 (stereo not given),,inactive: -1.41%
N#C/C(=C\c1ccc([N+](=O)[O-])cc1)c1nc(C2CC2)cs1,"inconclusive: 1.26 µM [inhibitor, full curve]",
CCOc1ccc(N=Cc2c(O)n(-c3cc(C)cc(C)c3)c(=O)[nH]c2=O)cc1,"inconclusive: 17.8 µM [inhibitor, partial curve]",
Cc1ccccc1C1=NCC(=O)N(CC(=O)NCc2ccco2)c2sc3c(c21)CCCC3,,inactive: 4.78%

SMILES,Potency,"activity, negative = inhibition"
CCCCN1CC(O)=C(c2nc3ccccc3s2)C1=N,"inconclusive: 17.8 µM [inhibitor, partial curve]",
O=c1[nH]c(=O)n(Cc2ccco2)c(O)c1C=NC1CC1,"inconclusive: 35.5 µM [inhibitor, single point]",
Cn1cccc1-c1cccnc1,,inactive: -0.573%
CC(=O)OC1CC2C(C)(C)C(O)C=C[C@@]2(C)C2CC[C@]3(C)C(=CC(=O)OC3c3ccoc3)[C@]12C (stereo not given in full),active: 35.5 µM,
CSc1ncc(/C=C2/C(=O)NC(=O)N(C)C2=O)cn1,"inconclusive: 20 µM [inhibitor, partial curve, poor fit]",
O=C(c1ccc2c(c1)N(Cc1ccc(F)cc1Cl)C(=O)c1ccccc1S2)N1CCC2(CC1)OCCO2,"inconclusive: 1.78 µM [inhibitor, partial curve]",
COc1cc2c(cc1O)C[C@H]1NCCc3cc4c(c-2c31)OCO4,active: 14.1 µM,
CCc1ccc(-c2nc(CN3CCCC(C(=O)NCc4ccc(C)cc4)C3)c(C)o2)cc1 (stereo not given),"inconclusive: 25.1 µM [inhibitor, single point]",
COc1cc(CNC(=O)CCCC/C=C/C(C)C)ccc1O,"inconclusive: 17.8 µM [inhibitor, partial curve]",
Cc1cc(/C=C2\C(=O)NC(=S)N(C)C2=O)c(C)n1C1CCCCC1,"inconclusive: 8.91 µM [inhibitor, partial curve]",
CCOP(=O)(OCC)c1nc(-c2cccc3ccccc23)oc1NCc1ccccc1,"inconclusive: 28.2 µM [inhibitor, partial curve]",
Cc1cccc(-n2c(O)c(/C=C3/C(c4ccccc4)=Nc4ccccc43)c(=O)[nH]c2=O)c1,"inconclusive: 11.2 µM [inhibitor, partial curve]",
O=c1cc(C2CCNCC2)[nH][nH]1,"inconclusive: 25.1 µM [inhibitor, partial curve]",
CC(=O)O[C@H]1[C@H]2[C@@H](OC(=O)Cc3ccccc3)[C@@H](C)C[C@]2(OC(C)=O)C(=O)/C(C)=C/[C@@H]2[C@H](CC[C@@]13CO3)C2(C)C,"inconclusive: 20 µM [inhibitor, single point]",
C=C(C)C1CCC(C)=CC1c1c(O)cc(O)cc1CCCCC (stereo not given),"inconclusive: 44.7 µM [inhibitor, single point]",
O=C1Nc2ccc(Cl)cc2C(c2ccccc2Cl)=NC1O (stereo not given),,inactive: -7.32%
COc1cc2c(cc1O)CC[n+]1cc3c(OC)c(OC)ccc3cc1-2,"inconclusive: 15.8 µM [inhibitor, partial curve]",
c1ccc(-c2ccc(C(c3ccccc3)n3ccnc3)cc2)cc1 (stereo not given),"inconclusive: 14.1 µM [inhibitor, partial curve] and inconclusive: 12.6 µM [inhibitor, partial curve]",
O=C(Cc1ccc(Cl)c(Cl)c1)N1CCCC[C@H]1CN1CCCC1,,inactive: -16.4%
Oc1ccc2[nH]cc(CCCCN3CC=C(c4ccccc4)CC3)c2c1,"inconclusive: 22.4 µM [inhibitor, single point]",
CC(=O)N1CCN(c2ccc([N+](=O)[O-])cc2C=C2C(=O)NC(=O)NC2=O)CC1,"inconclusive: 20 µM [inhibitor, partial curve]",
CCn1cc(C(=O)c2cccs2)c2ccccc21,,inactive: -16.6%

SMILES,Potency,"activity, negative = inhibition"
CC(C)(C)c1o[nH]c(=O)c1C[C@H](N)C(=O)O,,inactive: -4.53%
Cn1c(O)c(C(c2ccccn2)c2c(O)n(C)c(=S)n(C)c2=O)c(=O)n(C)c1=S,"inconclusive: 17.8 µM [inhibitor, partial curve]",
c1cncc(C2Nc3cccc4cccc(c34)N2)c1,active: 12.6 µM,
Cc1ccc(N2C(=O)NC(=O)/C(=C\c3ccc(N4CCOCC4)cc3)C2=O)cc1,"inconclusive: 11.2 µM [inhibitor, partial curve]",
COc1ccc(NC(=O)Nc2cccc3cccnc23)cc1,"inconclusive: 10 µM [inhibitor, partial curve]",
CN1CCN(c2ccc([N+](=O)[O-])c(Sc3ccccn3)c2)CC1,"inconclusive: 15.8 µM [inhibitor, single point]",
Nc1ccccc1Nc1ccc([N+](=O)[O-])cc1[N+](=O)[O-],"inconclusive: 22.4 µM [inhibitor, single point]",
c1ccc2c(c1)CC1CNCc3cccc(c31)S2 (stereo not given),,inactive: -7.95%
O=C(CC[N+](=O)[O-])OCC1OC(O)C(OC(=O)CC[N+](=O)[O-])[C@@H](OC(=O)CC[N+](=O)[O-])C1OC(=O)CC[N+](=O)[O-] (stereo not given in full),"inconclusive: 17.8 µM [inhibitor, partial curve]",
CCC(=O)Nc1cc(C(=O)O)ccc1S(=O)(=O)c1ccc(C)cc1,"inconclusive: 7.08 µM [inhibitor, partial curve]",
C=CCOc1c(Cl)cc(CNc2ccc3[nH]c(=O)[nH]c3c2)cc1OC,"inconclusive: 31.6 µM [inhibitor, single point]",
CC1(C)C(O)CC(O)[C@]2(C)C1CC(O)[C@]1(C)C2CC[C@@]2(C)C(c3ccoc3)CC3OC312 (stereo not given in full),,inactive: -1.94%
O=P1(Nc2ccc(F)cc2)COc2ccccc2OC1,,inactive: -10.3%
Cc1ccc(/C=C2\C(=O)NC(=O)N(CCc3ccc(F)cc3)C2=O)s1,"inconclusive: 3.98 µM [inhibitor, full curve]",
O=C(O)c1ccc(Cl)nc1,,inactive: 6.06%
CN1CCc2cc(O)cc3c2C1Cc1ccc(O)c(O)c1-3 (stereo not given),active: 14.1 µM and active: 15.8 µM,
C[C@@H]1CC([C@H](O)CC2CC(=O)NC(=O)C2)C(=O)[C@@H](C)C1 (stereo not given in full),,inactive: -10.7%
CCN(CC)c1ccc(C=C2C(=O)NC(=S)NC2=O)cc1,"inconclusive: 14.1 µM [inhibitor, partial curve]",
CCC(=O)Oc1ccc2c(c1)CCC1C2CC[C@]2(C)C(OC(=O)CC)CCC12 (stereo not given in full),"inconclusive: 11.2 µM [inhibitor, partial curve, poor fit]",
CC[n+]1c(/C=C/N(C)c2ccccc2)sc2ccc(Cl)cc21,"inconclusive: 17.8 µM [inhibitor, partial curve]",
O=c1[nH]c(O)c(C=NCCc2ccccc2)c(=O)[nH]1,,inactive: 3.62%
